This is one part of the list. No stated cut-off is given here; in the data, active = 3.2 or more and inactive = the rest. The signal is at background level for most entries.
Target: SHP2 C-SH2 domain E139D
Experiment: enrichment score (SH2-bound / input frequency) (ratio); bacterial display of known human phosphotyrosine sites (pTyr-Var adds point mutants) read by sequencing; higher = stronger binding; tyrosines were phosphorylated by kinases first
Conditions: peptide library: Human pTyr
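Further: displayed peptides selected on beads carrying the immobilized SH2 domain, with library peptides lacking any tyrosine serving as negative controls.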

Enrichment score, inactive:
ADSEMTGYVVTRWAR [MK12_HUMAN_185_YA] 2.04, ADAEMTGYVVTRWYR [MK13_HUMAN_182] 2.12, DEPVADPYDQSFESR [MK14_HUMAN_323] 1.1, GYDILEGYPKKISEL [MMP13_HUMAN_366] 0.68, GADILEGYPKKISEL [MMP13_HUMAN_366_YA] 0.717, GTPRRLLYCQRSLLD [MMP14_HUMAN_573] 1.12, DAATTNGYTPLHISA [ANK2_HUMAN_531] 0.699, SARIQRAYNHYFDLI [MPP6_HUMAN_500] 1.73, SARIQRAYNHAFDLI [MPP6_HUMAN_500_YA] 0.773, DFSTKDIYQDLNRLL [MSH2_HUMAN_238] 1.09, IFPARDTYHPMSEYP [MUC1_HUMAN_1203] 0.583, IFPARDTYHPMSEAP [MUC1_HUMAN_1203_YA] 0.731, TYHTHGRYVPPSSTD [MUC1_HUMAN_1218] 1.8, TAHTHGRYVPPSSTD [MUC1_HUMAN_1218_YA] 1.28, FGLSRNIYSADYYKA [MUSK_HUMAN_751] 0.805, NIYSADYYKANENDA [MUSK_HUMAN_756] 0.885, NIASADAYKANENDA [MUSK_HUMAN_756_YA] 0.704, GQTVQQVYNAVGALA [MYH1_HUMAN_424] 0.696

Target: SHP2 C-SH2 domain wild-type
Experiment: as above
Conditions: peptide library: Human pTyr

Enrichment score, inactive:
ADSEMTGYVVTRWAR [MK12_HUMAN_185_YA] 1.57, ADAEMTGYVVTRWYR [MK13_HUMAN_182] 1.92, DEPVADPYDQSFESR [MK14_HUMAN_323] 0.881, GYDILEGYPKKISEL [MMP13_HUMAN_366] 0.652, GADILEGYPKKISEL [MMP13_HUMAN_366_YA] 0.626, GTPRRLLYCQRSLLD [MMP14_HUMAN_573] 1.11, DAATTNGYTPLHISA [ANK2_HUMAN_531] 0.568, SARIQRAYNHYFDLI [MPP6_HUMAN_500] 1.54, SARIQRAYNHAFDLI [MPP6_HUMAN_500_YA] 0.729, DFSTKDIYQDLNRLL [MSH2_HUMAN_238] 1.12, IFPARDTYHPMSEYP [MUC1_HUMAN_1203] 0.65, IFPARDTYHPMSEAP [MUC1_HUMAN_1203_YA] 0.637, TYHTHGRYVPPSSTD [MUC1_HUMAN_1218] 1.72, TAHTHGRYVPPSSTD [MUC1_HUMAN_1218_YA] 1.15, FGLSRNIYSADYYKA [MUSK_HUMAN_751] 0.954, NIYSADYYKANENDA [MUSK_HUMAN_756] 1.01, NIASADAYKANENDA [MUSK_HUMAN_756_YA] 0.767, GQTVQQVYNAVGALA [MYH1_HUMAN_424] 0.657

Target: SHP2 N-SH2 domain L43F
Experiment: as above
Conditions: peptide library: Human pTyr

Enrichment score, inactive:
ADSEMTGYVVTRWAR [MK12_HUMAN_185_YA] 1.51, ADAEMTGYVVTRWYR [MK13_HUMAN_182] 1.77, DEPVADPYDQSFESR [MK14_HUMAN_323] 0.906, GYDILEGYPKKISEL [MMP13_HUMAN_366] 0.648, GADILEGYPKKISEL [MMP13_HUMAN_366_YA] 0.74, GTPRRLLYCQRSLLD [MMP14_HUMAN_573] 1.14, DAATTNGYTPLHISA [ANK2_HUMAN_531] 0.636, SARIQRAYNHYFDLI [MPP6_HUMAN_500] 1.65, SARIQRAYNHAFDLI [MPP6_HUMAN_500_YA] 0.685, DFSTKDIYQDLNRLL [MSH2_HUMAN_238] 1.55, IFPARDTYHPMSEYP [MUC1_HUMAN_1203] 0.613, IFPARDTYHPMSEAP [MUC1_HUMAN_1203_YA] 0.809, TYHTHGRYVPPSSTD [MUC1_HUMAN_1218] 1.69, TAHTHGRYVPPSSTD [MUC1_HUMAN_1218_YA] 1.1, FGLSRNIYSADYYKA [MUSK_HUMAN_751] 0.831, NIYSADYYKANENDA [MUSK_HUMAN_756] 0.915, NIASADAYKANENDA [MUSK_HUMAN_756_YA] 0.744, GQTVQQVYNAVGALA [MYH1_HUMAN_424] 0.623

Target: SHP2 N-SH2 domain T42A
Experiment: as above
Conditions: peptide library: Human pTyr

Enrichment score, inactive:
ADSEMTGYVVTRWAR [MK12_HUMAN_185_YA] 1.44, ADAEMTGYVVTRWYR [MK13_HUMAN_182] 1.68, DEPVADPYDQSFESR [MK14_HUMAN_323] 0.976, GYDILEGYPKKISEL [MMP13_HUMAN_366] 0.467, GADILEGYPKKISEL [MMP13_HUMAN_366_YA] 0.703, GTPRRLLYCQRSLLD [MMP14_HUMAN_573] 1.22, DAATTNGYTPLHISA [ANK2_HUMAN_531] 0.681, SARIQRAYNHYFDLI [MPP6_HUMAN_500] 1.62, SARIQRAYNHAFDLI [MPP6_HUMAN_500_YA] 0.694, DFSTKDIYQDLNRLL [MSH2_HUMAN_238] 1.12, IFPARDTYHPMSEYP [MUC1_HUMAN_1203] 0.705, IFPARDTYHPMSEAP [MUC1_HUMAN_1203_YA] 0.738, TYHTHGRYVPPSSTD [MUC1_HUMAN_1218] 1.83, TAHTHGRYVPPSSTD [MUC1_HUMAN_1218_YA] 1.41, FGLSRNIYSADYYKA [MUSK_HUMAN_751] 0.791, NIYSADYYKANENDA [MUSK_HUMAN_756] 0.929, NIASADAYKANENDA [MUSK_HUMAN_756_YA] 0.895, GQTVQQVYNAVGALA [MYH1_HUMAN_424] 0.659

Target: SHP2 N-SH2 domain T52S
Experiment: as above
Conditions: peptide library: Human pTyr

Enrichment score, inactive:
ADSEMTGYVVTRWAR [MK12_HUMAN_185_YA] 1.65, ADAEMTGYVVTRWYR [MK13_HUMAN_182] 1.97, DEPVADPYDQSFESR [MK14_HUMAN_323] 0.998, GYDILEGYPKKISEL [MMP13_HUMAN_366] 0.761, GADILEGYPKKISEL [MMP13_HUMAN_366_YA] 0.587, GTPRRLLYCQRSLLD [MMP14_HUMAN_573] 1.08, DAATTNGYTPLHISA [ANK2_HUMAN_531] 0.577, SARIQRAYNHYFDLI [MPP6_HUMAN_500] 1.57, SARIQRAYNHAFDLI [MPP6_HUMAN_500_YA] 0.698, DFSTKDIYQDLNRLL [MSH2_HUMAN_238] 1.13, IFPARDTYHPMSEYP [MUC1_HUMAN_1203] 0.911, IFPARDTYHPMSEAP [MUC1_HUMAN_1203_YA] 0.662, TYHTHGRYVPPSSTD [MUC1_HUMAN_1218] 1.92, TAHTHGRYVPPSSTD [MUC1_HUMAN_1218_YA] 1.47, FGLSRNIYSADYYKA [MUSK_HUMAN_751] 0.697, NIYSADYYKANENDA [MUSK_HUMAN_756] 0.987, NIASADAYKANENDA [MUSK_HUMAN_756_YA] 0.83, GQTVQQVYNAVGALA [MYH1_HUMAN_424] 1.08

Target: SHP2 N-SH2 domain wild-type
Experiment: as above
Conditions: peptide library: Human pTyr

Enrichment score, inactive:
ADSEMTGYVVTRWAR [MK12_HUMAN_185_YA] 1.39, ADAEMTGYVVTRWYR [MK13_HUMAN_182] 1.95, DEPVADPYDQSFESR [MK14_HUMAN_323] 1.05, GYDILEGYPKKISEL [MMP13_HUMAN_366] 0.605, GADILEGYPKKISEL [MMP13_HUMAN_366_YA] 0.787, GTPRRLLYCQRSLLD [MMP14_HUMAN_573] 1.3, DAATTNGYTPLHISA [ANK2_HUMAN_531] 0.557, SARIQRAYNHYFDLI [MPP6_HUMAN_500] 1.96, SARIQRAYNHAFDLI [MPP6_HUMAN_500_YA] 0.776, DFSTKDIYQDLNRLL [MSH2_HUMAN_238] 1.25, IFPARDTYHPMSEYP [MUC1_HUMAN_1203] 0.501, IFPARDTYHPMSEAP [MUC1_HUMAN_1203_YA] 0.758, TYHTHGRYVPPSSTD [MUC1_HUMAN_1218] 2.39, TAHTHGRYVPPSSTD [MUC1_HUMAN_1218_YA] 1.27, FGLSRNIYSADYYKA [MUSK_HUMAN_751] 0.637, NIYSADYYKANENDA [MUSK_HUMAN_756] 1.17, NIASADAYKANENDA [MUSK_HUMAN_756_YA] 0.796, GQTVQQVYNAVGALA [MYH1_HUMAN_424] 0.585
